This passage reports binding signal (log2 normalized intensity) results from article PMC10726135.

This is one part of the list. At the low end of the ranking, values are background and their order means little. Measured with an extract: partners may take part in the binding.

In the assay the target is T1, HNF4alpha8 (COS-7 nuclear extract) (UniProt P41235-5).
T1 sequence: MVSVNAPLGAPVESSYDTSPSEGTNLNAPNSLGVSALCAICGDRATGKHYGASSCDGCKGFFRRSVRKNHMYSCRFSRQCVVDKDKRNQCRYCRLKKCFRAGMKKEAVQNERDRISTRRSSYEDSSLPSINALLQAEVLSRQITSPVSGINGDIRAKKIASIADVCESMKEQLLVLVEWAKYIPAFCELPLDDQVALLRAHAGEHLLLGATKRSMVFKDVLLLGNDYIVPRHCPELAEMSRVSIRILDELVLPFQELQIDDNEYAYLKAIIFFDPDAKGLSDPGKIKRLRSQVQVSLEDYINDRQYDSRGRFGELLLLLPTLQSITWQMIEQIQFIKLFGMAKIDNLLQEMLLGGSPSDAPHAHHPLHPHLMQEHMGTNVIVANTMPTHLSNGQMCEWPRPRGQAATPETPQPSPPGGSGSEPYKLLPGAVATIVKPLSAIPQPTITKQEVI
The assay can be described thus: protein-binding microarray. Particulars: COS-7 nuclear extract on double-stranded Agilent 4x180k PBM; binding buffer, salt, pH and temperature not given; high values mean tight binding; double strand, one strand shown; sequences stand for … in …GCCTAGGGAGATTAGAGTATCGGTCGA
Consider TTGACTCTTCCCATCTAACTGCCCCTGATA, for which the binding signal (log2 normalized intensity) was found to be 4.03.

In the case of TATCCAGTCAATCCCGTGGACTTTGCCTGC, the binding signal (log2 normalized intensity) turned out to be 7.09.

GAACATCTGATTTCCCCGTCCCAAGCTGAG: the binding signal (log2 normalized intensity) is 3.49.

In the case of GTCAACAGCCAGCCTCAAAGATCAAAGGTA, the binding signal (log2 normalized intensity) was found to be 3.25.

For CAAAGGGCTTATTTTAGGAGCCTCCAATCA, the binding signal (log2 normalized intensity) was -1.31.

For the sequence GGGCCCTGACCTCAAGTGACCTTTGACCTC, the binding signal (log2 normalized intensity) amounted to 12.

With GAACAAAGGTTGGTGTGAACCAGGGTTAAG, the binding signal (log2 normalized intensity) came to 1.59.

AAGTTCAAGTAGATAAAATCAAACAGATGT: the binding signal (log2 normalized intensity) was found to be 0.359.

For AAAAGTATGTCATAATGTACTCCACTGTGC, the binding signal (log2 normalized intensity) worked out at 0.829.

In the case of TGAACTATTGAACCACCAGATAGAGCTTTT, the binding signal (log2 normalized intensity) worked out at 0.654.

Take GCATTAGTTATATCTTACCTCCTTCTCCCC: the binding signal (log2 normalized intensity) was 3.09.

For GATACAGTTATGAAAAGAAACAGCCAAAAG, the binding signal (log2 normalized intensity) was -1.34.

On to TTGAGAGAGATTAAAGGTCAAGCCCAACCA, for which the binding signal (log2 normalized intensity) amounted to 4.41.

Take TTATTGATAACCCTATAAGGTAGAATCTAT: the binding signal (log2 normalized intensity) is -0.743.

As to GACCTGTATCTTGTGGTGACCTCTTATCTC, the binding signal (log2 normalized intensity) is 3.97.

As for AACAACCCATCCTTGACACATCTGATTAGA, the binding signal (log2 normalized intensity) was -1.31.

For the sequence TGTTGTTGATTTAACATTTGTGATCTGGCA, the binding signal (log2 normalized intensity) is 1.59.

With CTGCAGAGAACAGCAGCTATCAGTGGTCCG, the binding signal (log2 normalized intensity) is 1.36.

For the sequence TGGACAGTGTCTGACTAGAGTGGAGTGAAG, the binding signal (log2 normalized intensity) is -1.21.

On to TTCCTGACCCCTCCTCCCCCCGCCGCATCT, for which the binding signal (log2 normalized intensity) came to 6.

Regarding CCTTGCAATGCTGGAGGGACTGTGATGAAG, the binding signal (log2 normalized intensity) was -0.962.

As to CGATAATAGAGATTGCTTAATGCAAACTCC, the binding signal (log2 normalized intensity) is -1.38.

As for GTGACCAAGAATGTCTAACCTCCTGGGAAT, the binding signal (log2 normalized intensity) is -1.27.

Regarding ACCTTTGACCCTTCTCTGGGAGAAAGGGAG, the binding signal (log2 normalized intensity) came to 3.86.

As to GCAAGGGCCCCCACTAGAGAGACCGTCCCT, the binding signal (log2 normalized intensity) was found to be 2.63.

Regarding ACATTCTTTAGCATATTACACCTGTAGCTT, the binding signal (log2 normalized intensity) stood at 0.621.

As for GACAGGGTAATTTACAGAACTCTTCGAAGA, the binding signal (log2 normalized intensity) is -1.16.

With CTTGGATCCTCAGGGTTCATAGATGATAGT, the binding signal (log2 normalized intensity) turned out to be 1.42.

Consider ATCACTCAAGAAATGGCAGTTTTAAGAGCT, for which the binding signal (log2 normalized intensity) was -1.34.

As to AGTTTGAACTTTGACTTATTTAGTAGTGGC, the binding signal (log2 normalized intensity) was found to be 4.66.

As for TGAAAGCTGCTTCCCAGTTGCTCTGGAGTG, the binding signal (log2 normalized intensity) was -1.28.

Take ATGCTTCAGTGAGCCTTGACCTTCATGCTA: the binding signal (log2 normalized intensity) was 2.91.

Take GCTTCAGGAGTCCACTGTGTTCTTGTTTGC: the binding signal (log2 normalized intensity) was 1.95.

As to TGGGACTTAATCCTTGTCTGTTTGGCCTTA, the binding signal (log2 normalized intensity) turned out to be 2.34.

For ACACAAAGACATTGCCTGGCATTATCAGTG, the binding signal (log2 normalized intensity) is -1.12.

For the sequence TGTGTTGGCAAGAGATCTGCAGGGTTAAAT, the binding signal (log2 normalized intensity) was 1.03.

AGAGGGGGTTTGTTTTTTGCCCTTTGTACC: the binding signal (log2 normalized intensity) came to 8.63.

Turning to GATTGGACTCTGCACTCCAGCCTGGGTGAC, the binding signal (log2 normalized intensity) was 3.96.

On to ATGTTGACCCGAGTGCCCTTTGGCAAACAG, for which the binding signal (log2 normalized intensity) came to 3.44.

In the case of GATCTCCGTGTTTGGAATTGTGTCACTCCC, the binding signal (log2 normalized intensity) was determined as 1.65.
